Source: the RNAGym collection of RNA variant scans (doi:10.1093/nar/gkz1192)
The source gives no read counts; variants with many changes may rest on few reads.

B1: CPEB3 Ribozyme (parent)
chain: UAACAGGGGGCCACAGCAGAAGCGUUCACGUCGCAGCCCCUGUCAGAUUCUGGUGAAUCUGCGAAUUCUGCUGUAUAUCUC

Variants of: B1
Assay: self-cleavage, relative activity (ratio to wild type); higher = more cleavage; in vitro, sequencing
Summary of the method: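 After error-prone PCR and barcoding, CPEB3 ribozyme mutant libraries were transcribed with T7 RNA polymerase at 37°C for 5 hours, then given 15 min with DNase I before an EDTA stop, and they cleaved during both steps. Reverse transcription with template switching preceded Illumina sequencing. Relative activity divides a variant's cleaved/total read fraction by the unmutated ribozyme's. At least 5 reads were required per variant, and three batches were averaged.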

| Variant | self-cleavage |
| --- | --- |
| A13G U25C U72G | 0.32 |
| A13G A28U U51A A65G U78C | 0.11 |
| A13G A20C A21G U66C U80A | 0.09 |
| C12U U43A A45G A47G U58A U67C U72C | 0.1 |
| A13C U41A U43G U49A G63A U76A | 0.11 |
| A13G A21G U58C U69A U72C | 0.2 |
| C12U G63C A65U U69A | 0.36 |
| A13G A35G U41A U67C | 0.07 |
| A13G A18U U54A A56U | 0.14 |
| A13C A18G U51C A57G | 0.17 |
| A13G A35U U78C | 0.54 |
| A13C U43C A65G | 0.12 |
| A13G A20G U41C A65G | 0.28 |
| A13C U58C A65U | 0.16 |
| A13C A21G U69G C71A A75U | 0.04 |
| A13G C40U A45G U67A U72A | 0.13 |
| C12U A45G G53A U60C | 1.46 |
| A13G C14A U43C U48C U69C | 0.06 |
| A13G A28G U60C | 0.19 |
| A13G A28G U60A | 0.18 |
| A13G C27G U76C | 0.2 |

| Variant | self-cleavage |
| --- | --- |
| A13C A21U U69A U72C A75U | 0.07 |
| A13G A64U A77G | 0.44 |
| A13G C37A U41C A56U A57G U78C U80C | 0.1 |
| A13G U25C U41C U72C U78C | 0.74 |
| A13G A45G U72G U76C A77U | 0.21 |
| A13C G55A U80C | 1.1 |
| A13G A28G A45U C62U | 0.08 |
| A13G A18G A28G U51C | 0.31 |
| A13G A18G A28C | 0.14 |
| A13G G22U C38A | 0.15 |
| A13G A20G C34U A47G | 0.24 |
| A13G U25C C39U U49C U60G U66C | 0.21 |
| C12U G24U G33A U41A A45U | 0.05 |
| A13G A20G U43A | 0.59 |
| A13G A18G A20U U49A | 0.26 |
| C12U A47G U69C | 1.02 |
| A13C U25C U49A U60A U80G | 0.12 |
| A13G A15G U26A U31A U51A | 0.33 |
| A13C A18G U43A U80C | 0.92 |
| A13G A28G U49C | 0.48 |
| A13G U25C U54C A57G | 0.08 |

| Variant | self-cleavage |
| --- | --- |
| A13G A45U U54C C59A U60A | 0.11 |
| A13C U26G A75G U78C | 0.39 |
| A13G A47G U78C U80C | 0 |
| A13G U25G A35G U72C A77G | 0.05 |
| C12U G19U U51C G63A U80C | 0.15 |
| C12U A20G C23U A35U A57G A64G U80C | 0.07 |
| A13G A18G A21U U26A U49C U67A U78C | 0.16 |
| C12U U26C U41C A47G A64G | 0.35 |
| A13C C23A A45G U48C U54C A64U A77G | 0.06 |
| A13G A15G A45G U54C | 0.29 |
| A13G A57G A64G | 0.44 |
| A13G A35G U49A U51A A64U U76C | 0.13 |
| A13G A35G U51C G52C U60C A65G | 0.14 |
| A13C A20G U43A U72A | 0.37 |
| A13C A47G U60C A65U U72A | 0.12 |
| C12U G16A U60C | 0.13 |
| A13G A35G U41A U60A G63A U72C U78C | 0.05 |
| A13G A21G U43C C68U U76C | 0.19 |
| A13G A15U U41A U54C U60A U67C U74C | 0.06 |
| A13G C14U A18G U41C A56G A57G U66C | 0.04 |
| A13G A28G U43C U58C U72A U80C | 0.15 |

| Variant | self-cleavage |
| --- | --- |
| A13G A18U A20G C29U A45U C68A U78C | 0 |
| C12U A20G U31G A47G | 0.92 |
| A13G U25A U26C C32U A56U U60A U72C | 0.13 |
| A13G G33U A65C A77G | 0.11 |
| A13C A20G A21G A28U U43C A57G A64G | 0 |
| A13G C59A U72G | 0.05 |
| A13G A20G C32G | 0.35 |
| A13G A15C G24A C32U A56G U69C | 0.04 |
| A13C A77G U80C | 1.07 |
| A13G G22U U48C | 0.06 |
| A13C U41C A45U | 0.89 |
| A13G U25C C27G A65U U72A U80C | 0.22 |
| A13G C32U G33A A47U U69A | 0.05 |
| A13G A15U A56U U58G G63A U80C | 0.06 |
| C12U A28G C39A | 0.05 |
| A13C U31G G46A U48G | 0.15 |
| A13G A18G A56U U58C | 0.12 |
| A13G U25C U31A C37U G70C U78C | 0.14 |
| A13G C34U A56G | 0.2 |
| C12U A45C A75G | 1.1 |
